Measurements taken from PubChem BioAssay AID686979 (National Center for Advancing Translational Sciences (NCATS), 2013).
Where “and” joins values, the source holds several entries; their conditions need not be identical. Equal entries are not always repeated. Out of some 420,000 compounds screened, about 50,000 (12%) were called active. This list was built around the results that the source calls inconclusive (neither active nor inactive); the mix of calls is not that of the screen. The call rests on the fitted dose curve; in most records, active means well fitted inhibition curve with a large enough effect; inconclusive means small, poorly fitted or top-dose-only effect; inactive means flat fitted curve, though single readings scatter. Potencies of inconclusive entries are doubtful fits and often do not repeat.

Experiment: qHTS for Inhibitors of human tyrosyl-DNA phosphodiesterase 1 (TDP1): qHTS in cells in presence of CPT; further: nearly all actives have a fitted effect of over 55% in size
Settings: chicken DT40 Tdp1-/-;hTDP1 cells + 20 nM CPT, ATP luminescence, 48 h; activity change, negative = growth inhibition: at 46.2 µM (top of the series)
Outline: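 Chicken DT40 Tdp1-/- cells stably complemented with human TDP1 were seeded at 400 cells/well in medium containing 20 nM camptothecin, exposed to pin-transferred compounds, and grown at 37 °C for at least 48 hr. Viability was read as ATP luminescence.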
On the % scale 0 is the no-effect control and ±100 the full control effect; potency means the concentration at half of the fitted maximal effect; tags describe the fitted curve by direction and shape.

Row | SMILES | Potency | activity change, negative = growth inhibition
1 | CCOc1ccc(-n2c(N)c(-c3nc4ccccc4n3C)c3nc4ccccc4nc32)cc1 | inconclusive: 29.1 µM [inhibitor, single point] | 
2 | CN1CCN(c2nc(-c3ccoc3)nc3ccccc23)CC1 |  | inactive: 2.91%
3 | O=c1[nH][nH]c(-c2ccccc2O)c1C(C[N+](=O)[O-])c1ccc(Br)cc1 (configuration not stated) | active: 3.26 µM | 
4 | CN1c2ccccc2C(C)(C)C12CC(c1ccc(S(=O)(=O)N3CCCCC3)cc1)=NO2 (configuration not stated) | inconclusive: 18.4 µM [inhibitor, single point] | 
5 | Cc1cccc(NC(=O)Cn2c(=O)nc(-c3ccccc3)c3ccccc32)c1C | inconclusive: 18.4 µM [inhibitor, single point] | 
6 | COC(=O)CSc1nc2cc3c(cc2cc1C#N)OCO3 |  | inactive: -15.4%
7 | O=Cc1ccc(C(=O)OCC(=O)NCCC2=CCCCC2)cc1 |  | inactive: 9.45%
8 | CNC[C@@H]1CC[C@@H](N)[C@@H](O[C@H]2[C@H](O)[C@@H](O[C@H]3OC[C@](C)(O)[C@H](NC)[C@H]3O)[C@H](N)C[C@@H]2N)O1 |  | inactive: 4.09%
9 | COc1ccc(C2=NOC(C(=O)Nc3cccnc3)C2)cc1 (configuration not stated) |  | inconclusive: -33.5% [inhibitor]
10 | Cc1ccc(CSC2=NS(=O)(=O)c3ccccc32)cc1 | active: 8.91 µM | 
11 | CC(C)NC(=O)C1(C)Cc2c(-c3cccc(C(F)(F)F)c3)ccnc2O1 (configuration not stated) | active: 18.4 µM | 
12 | CC(C)NC(=O)C1(C)CCN1Cc1ccc(Cl)cc1 (configuration not stated) | inconclusive: 29.1 µM [inhibitor, single point] | 
13 | CCC(C)(C)NC(=O)C(c1cccn1C)N(Cc1ccc(C)cc1)C(=O)Cn1nnc2ccccc21 (configuration not stated) | inconclusive: 11.6 µM [inhibitor, partial curve] | 
14 | Cc1cccc(NS(=O)(=O)c2ccc(C(=O)N3CCCC3)cc2)c1C |  | inactive: -17.3%
15 | CNC(=O)C1CCC(Cn2c(=O)c3sccc3n(CC(=O)Nc3ccc(C)c(F)c3)c2=O)CC1 (configuration not stated) | inconclusive: 16.4 µM [inhibitor, single point] | 
16 | Cn1c(=O)c2c(nc(NCC3CCCC(CN)C3)n2Cc2ccc(Cl)cc2Cl)n(C)c1=O (configuration not stated) | active: 4.61 µM | 
17 | COc1ccc(-n2c(=O)c3c4c(sc3n(CC(=O)Nc3cc(C)[nH]n3)c2=O)CCCC4)c(OC)c1 |  | inactive: 6.52%
18 | CCOC(=O)c1ccccc1NC1CC(=O)N(c2ccccc2C)C1=O (configuration not stated) | inconclusive: 29.1 µM [inhibitor, single point] | 
19 | N#C/C(=C(\O)c1cc(Cl)sc1Cl)c1nc2ccccc2[nH]1 | inconclusive: 36.6 µM [inhibitor, partial curve, poor fit] | 
20 | Cc1cnc(NC(=O)CSc2nnc(N)s2)s1 | inconclusive: 23.1 µM [inhibitor, single point] | 
21 | CCN(CC)S(=O)(=O)c1ccc(C)c(NC(=O)CSc2nc3ccccc3[nH]2)c1 | inconclusive: 29.1 µM [inhibitor, single point] | 
22 | CCS(=O)(=O)n1nc(-c2ccc(Cl)cc2)nc1SC |  | inconclusive: -35.5% [inhibitor]
23 | COc1cccc(N2CC(C(=O)Nc3nnc(SCCC4OCCO4)s3)CC2=O)c1 (configuration not stated) |  | inactive: -7.47%
24 | CCOc1cc2[nH]c(=O)n(CCCC(=O)N3CCN(c4ccc(OC)cc4)CC3)c(=O)c2cc1OCC | inconclusive: 25.9 µM [inhibitor, single point] | 

Row | SMILES | Potency | activity change, negative = growth inhibition
25 | CCOC(=O)C1CCN(c2cc(C)nc3cc(-c4cccc(F)c4)nn23)CC1 | inconclusive: 18.4 µM [inhibitor, single point] | 
26 | COCC(C)NC(=O)COCc1cc(-c2ccc3c(c2)OCO3)on1 (configuration not stated) |  | inactive: -17.5%
27 | COc1ccc(NS(=O)(=O)c2cc(N)ccc2N2CCCC2)cc1 | inconclusive: 29.1 µM [inhibitor, single point] | 
28 | Cc1noc(C)c1C(=O)N1CCC1(C)C(=O)NS(=O)(=O)c1cccc(Cl)c1 (configuration not stated) |  | inactive: -0.0651%
29 | COc1ccc(CC(=O)Nc2cccc(-c3ccc4nncn4n3)c2)cc1OC | inconclusive: 25.9 µM [inhibitor, single point] | 
30 | CCn1c2ccccc2c2cc(NC(=O)COc3cccc(C)c3)ccc21 | inconclusive: 29.1 µM [inhibitor, single point] | 
31 | CCOC(=O)c1c(C)[nH]c(C(=O)OCC(=O)N2CCN(S(=O)(=O)c3ccc(C)cc3C)CC2)c1C | inconclusive: 29.1 µM [inhibitor, single point] | 
32 | CCCCn1c(N)c(N(CCOC)C(=O)COC(=O)COc2cc(C)c(Cl)cc2C(C)C)c(=O)[nH]c1=O |  | inactive: 12.1%
33 | COc1ccc(/C=C/C(=O)NC(=S)Nc2ccc(S(N)(=O)=O)cc2)cc1 |  | inconclusive: -32.3% [inhibitor]
34 | C#CCOc1ccc(Br)cc1C(c1c(C)[nH][nH]c1=O)c1c(C)[nH][nH]c1=O |  | inactive: -9.11%
35 | CC(=O)c1ccccc1NCC(=O)Nc1ccc(C)cc1 |  | inactive: -1.71%
36 | CSc1nnc(-c2ccco2)n1-c1ccccc1 | active: 18.4 µM | 
37 | COc1ccc(C)cc1NC(=O)C1CCCN(S(=O)(=O)c2ccc3[nH]c(=O)ccc3c2)C1 (configuration not stated) | inconclusive: 20.6 µM [inhibitor, single point] and inconclusive: 13 µM [inhibitor, partial curve, poor fit] | 
38 | C[C@H](CO)N1C[C@H](C)[C@@H](CN(C)S(=O)(=O)c2ccccc2)Oc2c(NC(=O)Nc3ccc4c(c3)OCO4)cccc2C1=O | active: 16.4 µM | 
39 | O=C(COc1coc(CN2CCc3ccccc32)cc1=O)Nc1ccccc1 | inconclusive: 20.6 µM [inhibitor, single point] | 
40 | CC(C)Cc1nc2oc3c(Cl)ncnc3c2c2c1CCCC2 | inconclusive: 29.1 µM [inhibitor, single point] | 
41 | Cc1nnc(NC(=O)CCS(=O)(=O)c2ccccc2)s1 | active: 16.4 µM | 
42 | O=C(NC(NC(=S)Nc1ccc(Cl)cc1Cl)C(Cl)(Cl)Cl)c1cccc([N+](=O)[O-])c1 (configuration not stated) | active: 7.31 µM | 
43 | Cc1c(NC(=O)c2ccc([N+](=O)[O-])o2)cccc1-c1nc2ncccc2o1 | active: 18.4 µM | 
44 | CC1CCN(C(=O)CCCl)c2ccccc21 (configuration not stated) |  | inactive: 5.07%
45 | C/C(=N/NC(=O)c1ccncc1)c1ccc(NC(=O)c2ccc(Cl)cc2Cl)cc1 |  | inactive: -9.52%
46 | Cc1ccc(C(=O)NCCCNc2ccccc2[N+](=O)[O-])cc1 | inconclusive: 25.9 µM [inhibitor, single point] | 
47 | Cc1ccc(NC(=O)CSC2=Nc3ccccc3C3CC=NN23)c(C)c1 (configuration not stated) | active: 20.6 µM | 
48 | CNC(C)C#Cc1ccc2sc3cccc(OC)c3c(=O)c2c1 (configuration not stated) | inconclusive: 16.4 µM [inhibitor, single point] | 

Row | SMILES | Potency | activity change, negative = growth inhibition
49 | COc1ccc(C(CNC(=O)c2ccc(NS(=O)(=O)c3ccc(F)c(C)c3)cc2)N(C)C)cc1 (configuration not stated) | inconclusive: 13 µM [inhibitor, partial curve] | 
50 | CCCCN1CC(c2nc3ccccc3n2CCCCOc2ccc(C)c(C)c2)CC1=O (configuration not stated) | active: 10.3 µM | 
51 | CCOC(=O)c1cc(-c2cccc([N+](=O)[O-])c2)nc2[nH]c(=O)[nH]c(=O)c12 |  | inactive: -17.8%
52 | Oc1c(N=Nc2ccccn2)ccc2ccccc12 | active: 1.46 µM | 
53 | Cc1ccc(NC(=O)COC(=O)c2ccc3c(c2)OCO3)c(C)c1 |  | inactive: 18.4%
54 | CNS(=O)(=O)c1ccc2c3c(cccc13)C(=O)N2C |  | inactive: -21.2%
55 | COc1ccc(C(=O)CC(C(=O)O)c2ccc(OC)c(OC)c2)cc1OC (configuration not stated) |  | inactive: 0.601%
56 | Cn1c(=O)c2c(nc(N3CCc4ccccc4C3)n2C)n(C)c1=O | inconclusive: 4.61 µM [inhibitor, full curve] | 
57 | CC(C)C(=O)N1CCN(c2ccc(NC(=O)c3ccc4c(c3)OCCO4)cc2Cl)CC1 | inconclusive: 29.1 µM [inhibitor, single point] | 
58 | Cc1ccc(F)c(NC(=O)Nc2ccc3snnc3c2)c1 | active: 20.6 µM | 
59 | Cc1ccc(C)c(S(=O)(=O)N2CCCC2CNC(=O)C(=O)NC2CC2)c1 (configuration not stated) |  | inactive: 17.5%
60 | O=C1c2ccccc2C(=O)N1Cc1nc2ccccc2c(=O)n1CCN1CCOCC1 |  | inactive: -22.5%
61 | CCN1C(=O)[C@H]2[C@@H](c3ccc(-c4ccc(OC)cc4)c(OC)c3)N[C@@](CC(C)C)(C(=O)OC)[C@H]2C1=O | inconclusive: 23.1 µM [inhibitor, single point] | 
62 | COc1ccc(N(C(C)C(=O)NN=C2CCCCCCC2)S(C)(=O)=O)cc1 (configuration not stated) | inconclusive: 29.1 µM [inhibitor, single point] | 
63 | O=C1c2[nH]nc(-c3ccccc3O)c2C(c2cccc(Cl)c2)N1Cc1cccnc1 (configuration not stated) | inconclusive: 16.4 µM [inhibitor, single point] | 
64 | Cc1cc(C)n(CC(=O)NNC(=O)c2ccc(NC(=O)CC#N)cc2)n1 |  | inactive: -0.302%
65 | CC1CCN(CC(=O)Nc2ccc(N3CCCCCC3)cc2)CC1 | inconclusive: 29.1 µM [inhibitor, single point] | 
66 | C=CCn1c(SCC(C)=O)nc2scc(-c3ccco3)c2c1=O | inconclusive: 25.9 µM [inhibitor, single point] | 
67 | O=C(CN1CCC(c2nc3ccccc3s2)CC1)NCc1ccccc1 | inconclusive: 10.3 µM [inhibitor, partial curve, poor fit] | 
68 | COCCn1c(-c2ccc(OC)cc2)c(-c2ccc(OC)cc2)oc1=O | inconclusive: 29.1 µM [inhibitor, single point] | 
69 | N#Cc1c(-c2cccs2)cc(-c2ccccn2)nc1N | active: 5.8 µM | 
70 | O=C(c1ccco1)N(CCC(c1ccccc1)c1ccco1)Cc1ccc(F)cc1 (configuration not stated) | inconclusive: 29.1 µM [inhibitor, single point] | 
71 | O=C(Nc1ccccc1)Nc1cc(Cl)cc(Cl)c1 | active: 6.51 µM | 
72 | COc1cc(-c2n[nH]c(=S)n2C(C)c2ccccc2)cc(OC)c1OC (configuration not stated) | inconclusive: 29.1 µM [inhibitor, single point] | 
